Assay results from article PMC4336329 (PLoS ONE, 2015).
Screen size: about 310,000 compounds; about 2,200 (0.71%) showed an effect of 50% or more. Effects have a minus sign here. This is one part of the list.

The compounds below were run against human ether-à-go-go-related gene (hERG) potassium channel (human, UniProt Q12809) (assay: primary screen, population patch clamp on CHO cells stably expressing hERG).
Chain of human ether-à-go-go-related gene (hERG) potassium channel (Q12809 whole entry, looked up): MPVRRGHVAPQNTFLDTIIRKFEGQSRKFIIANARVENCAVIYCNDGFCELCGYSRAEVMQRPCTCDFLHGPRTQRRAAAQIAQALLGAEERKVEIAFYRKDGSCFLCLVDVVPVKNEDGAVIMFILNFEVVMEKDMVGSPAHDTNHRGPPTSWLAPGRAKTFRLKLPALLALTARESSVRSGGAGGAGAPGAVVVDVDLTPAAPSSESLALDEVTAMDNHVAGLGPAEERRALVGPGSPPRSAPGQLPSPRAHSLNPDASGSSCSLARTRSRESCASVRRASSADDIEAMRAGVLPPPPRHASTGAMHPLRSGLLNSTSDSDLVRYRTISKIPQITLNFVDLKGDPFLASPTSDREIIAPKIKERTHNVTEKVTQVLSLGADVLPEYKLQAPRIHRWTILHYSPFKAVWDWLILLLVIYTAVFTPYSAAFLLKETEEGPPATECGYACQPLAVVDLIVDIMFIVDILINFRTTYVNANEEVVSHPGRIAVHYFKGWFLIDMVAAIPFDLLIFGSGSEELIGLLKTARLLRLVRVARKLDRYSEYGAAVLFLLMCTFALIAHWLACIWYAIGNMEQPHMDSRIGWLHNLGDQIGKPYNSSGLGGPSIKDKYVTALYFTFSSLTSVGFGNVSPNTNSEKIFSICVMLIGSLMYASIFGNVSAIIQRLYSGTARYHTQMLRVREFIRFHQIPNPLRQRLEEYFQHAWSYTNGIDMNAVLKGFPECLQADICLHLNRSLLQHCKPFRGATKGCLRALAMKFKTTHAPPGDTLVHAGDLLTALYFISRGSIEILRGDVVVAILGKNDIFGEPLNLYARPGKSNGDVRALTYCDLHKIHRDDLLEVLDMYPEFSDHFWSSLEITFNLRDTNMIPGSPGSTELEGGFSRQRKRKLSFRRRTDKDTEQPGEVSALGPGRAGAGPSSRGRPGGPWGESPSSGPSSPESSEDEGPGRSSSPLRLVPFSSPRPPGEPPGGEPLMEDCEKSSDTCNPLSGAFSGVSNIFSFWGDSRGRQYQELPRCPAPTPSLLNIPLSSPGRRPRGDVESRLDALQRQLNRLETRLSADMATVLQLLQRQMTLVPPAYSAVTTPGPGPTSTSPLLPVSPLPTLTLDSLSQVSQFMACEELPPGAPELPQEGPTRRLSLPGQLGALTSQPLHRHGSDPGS

Row | SMILES | hERG current change (%, negative = inhibition) at 1uM [%]
1 | COCCSc1nnc(NC(=O)CSc2ccccc2)s1 | 12.6
2 | Cc1ccc(CCNC(=O)C2CCN(S(=O)(=O)c3ccc4nc5c(c(C(=O)O)c4c3)CCCC5)CC2)cc1 | 21.5
3 | COc1cccc(OC)c1OCC(O)CN1CCN(c2ccc(F)cc2)CC1.Cl (stereo not drawn) | -34.3
4 | Cc1cccc(Oc2ncc(-c3ccc(Cl)cc3)cn2)c1C | 11.2
5 | COc1ccc(N2CCN(CCNS(=O)(=O)c3ccc(C)cc3)CC2)cc1 | 7.86
6 | CC(=O)NCCc1nc2ccccc2[nH]1 | 5.63
7 | COc1ccc(CC(=O)N(C)Cc2ccc(Cl)cc2)cc1S(=O)(=O)N1CCOCC1 | -4.04
8 | CCCCc1cc(=O)oc2cc(C)cc(OC(C)C(=O)NCc3ccccn3)c12 (stereo not drawn) | 9.09
9 | O=C(NCCO)C(=O)Nc1cc2c3c(c1)CCN3C(=O)CC2 | 21.2
10 | COC(=O)c1sccc1NC(=O)CSCCc1ccncc1 | 9.96
11 | CC1(C)CC(=O)C=C(Nc2ccc(F)c(Cl)c2)C1 | 1.12
12 | O=C(Nc1nc2ccccc2s1)C1CCN(C(=O)c2ccco2)CC1 | 2.15
13 | O=C(Cc1ccc(F)cc1)Nc1cccc(-c2cn3c(n2)SCC3)c1 | 2.33
14 | COc1ccc(CNC(=O)C2(CC3CC(c4ccccc4)=NO3)CCN(C(=O)C3CCCC3)CC2)cc1 (stereo not drawn) | -67.1
15 | CCN(C1CCCCC1)S(=O)(=O)c1ccc(C(=O)O)cc1 | 14.6
16 | Cc1ccc(S(=O)(=O)NC(c2ccccc2)C(C)C(=O)n2nc(C)cc2C)cc1 (stereo not drawn) | 1.95
17 | O=C(CCNC(=O)c1ccc([N+](=O)[O-])cc1)Nc1cccc(S(=O)(=O)N2CCCCCC2)c1 | -46.3
18 | CC(Oc1ccc2c3c(c(=O)oc2c1)CCC3)C(=O)NCc1cccnc1 (stereo not drawn) | 11.1
19 | COc1cc(-c2nnn(CC(=O)N3CCOCC3)n2)cc(OC)c1OC | 8.77
20 | Cc1ccsc1/C=N/NC(=O)c1nnn(-c2nonc2N)c1CSc1ccccc1 | 12.9
21 | Cc1cc2nnc(SC(C)C#N)n2c2ccccc12 (stereo not drawn) | 6.69
22 | Cc1cc(NC(=O)Nc2ccc(Cl)cc2)n(-c2ccccc2)n1 | 9.23
23 | N#Cc1c(NC(=O)c2ccccc2)sc2c1CCCCC2 | 12.1

Row | SMILES | hERG current change (%, negative = inhibition) at 1uM [%]
24 | COc1ccc(C2CC(=O)C=C(NC3CCCC3)C2)cc1 (stereo not drawn) | 7.72
25 | CN(CC(=O)Nc1ccccc1Br)Cc1nc2ccccc2c(=O)[nH]1 | -9.06
26 | CC(C)OC(=O)CC(=O)CSc1nc2c(c(-c3cccs3)c1C#N)CCC2 | 9.64
27 | COC(=O)c1ccc(CN2C(=O)NC(Cc3c[nH]c4ccccc34)C2=O)cc1 (stereo not drawn) | 10.9
28 | COc1ccc(NC(=O)CCNS(=O)(=O)c2cccc3nonc23)cc1Cl | 26.5
29 | COC(=O)CCC(=O)Nc1ccc(C)cc1OC(=O)CCC(=O)OC | 11.4
30 | CCNc1nc(Oc2ccccc2)nc(OC(C)C(=O)OCC)n1 (stereo not drawn) | -1.68
31 | Cc1ccc(S(=O)(=O)n2nc(OC(=O)c3cccc(F)c3)cc2N)cc1 | 15.5
32 | CC1(C)CC(=O)c2cc(OCC(=O)NCC3CCCO3)ccc2O1 (stereo not drawn) | 14
33 | COc1cc2nc(/C=C/c3cc(OC)c(OC)c(OC)c3)sc2cc1SC | 9.21
34 | COc1cccc(C(=O)N(Cc2ccco2)Cc2cc3cccc(C)c3[nH]c2=O)c1 | -6.66
35 | CNc1nc(-c2ccc3c(c2)CCN3C(=O)c2ccccc2F)c(C)s1 | 7.35
36 | CCOC(=O)C1CCCCN1Cc1ccccc1C(F)(F)F (stereo not drawn) | 6.1
37 | Cc1nnc(SCC(=O)Nc2ccc(F)cc2F)n(N)c1=O | -2.79
38 | O=C(COC(=O)c1ccc(S(=O)(=O)N2CCOCC2)cc1)NC1CCCCCCC1 | 9.32
39 | COC(=O)C1=C(c2ccc(OC)c(OC)c2)C[C@@H]2CC[C@H]1N2C(=O)NC1Cc2ccccc2C1 | 9.6
40 | CC1=CCC2C(=O)N(c3ccc(C(=O)N4CCCCCC4)cc3)C(=O)C2C1 (stereo not drawn) | 13.3
41 | O=c1[nH]cnc2c1c(-c1ccccc1)cn2-c1ccc(Br)cc1 | 10.4
42 | COc1cc(/C=N/NC(=O)C(=O)NCc2ccco2)cc(Cl)c1O | 6.32
43 | CC(C)CCNC1c2ccccc2C(=O)N1Cc1ccccc1.Cl (stereo not drawn) | 16.7
44 | COC(=O)Nc1ccc(NC(C)=O)cc1 | 21.6
45 | O=C(c1ccc2c(c1)OCCCO2)N1CCCCC1 | 15.7
46 | COC(=O)[C@H](Cc1ccccc1)NC(=O)NCCc1ccc(OC)cc1 | 7.6

Row | SMILES | hERG current change (%, negative = inhibition) at 1uM [%]
47 | COc1ccc(/C=C/C(=O)NC(=S)Nc2ccc(S(=O)(=O)Nc3cc(C)on3)cc2)cc1 | -6.85
48 | Cc1cc2c(cc(C(=O)N3CCC(C(=O)N4CCCC4)CC3)n2Cc2c(F)cccc2Cl)o1 | -1.17
49 | O=C(N/N=C/c1ccccn1)c1cc(-c2ccc(Br)s2)[nH]n1 | 12.2
50 | N#Cc1ccc(Cn2cc(C=O)c3ccccc32)cc1 | -8.65
51 | CNC(=S)N1CCN(C(c2ccccc2)c2ccccc2)CC1 | 9.53
52 | Cc1ccc(CNC(=O)c2ccc(CN3CCOCC3)cc2)cc1 | 10.4
53 | COc1ccc2c(c1)c(C(=O)CNc1nc(C)cs1)c(C)n2C.I | 4.62
54 | Cc1c(C(=O)N2CCCCCC2)oc2ccccc12 | 2.41
55 | CC1CCCC(C)N1/N=C/c1c[nH]c2ccc(Br)cc12 (stereo not drawn) | 12.1
56 | Cc1ccc(C(=O)NNC(=O)c2ccccc2)cc1S(=O)(=O)N1CCCCC1 | 0.738
57 | COc1cccc(CNC(=O)C2CCN(S(=O)(=O)c3cccs3)CC2)c1 | -8.7
58 | O=C(NCc1csc(-c2cccs2)n1)Nc1ccc(C(F)(F)F)cc1 | 10.7
59 | C=CCNC(=O)c1c(Cl)cnn1-c1ccc(C)cc1 | 16.3
60 | CSc1nc(N)c2c3c(sc2n1)COC(C(C)C)C3 (stereo not drawn) | -3.55
61 | COc1ccc(CCNc2nc(-c3cccc(NC(C)=O)c3)cs2)cc1OC | -5.96
62 | CN1/C(=C\C(=O)c2cccnc2Cl)C(C)(C)c2ccccc21 | 6.79
63 | CNC(=O)NC(=O)COC(=O)CCCOc1ccc(OC)cc1 | 14.6
64 | CC(NC(=O)COC(=O)c1ccc2ccccc2n1)C1CC2CCC1C2 (stereo not drawn) | 15
65 | CC(=O)c1ccc(-c2ccc(C(=O)N3CCCc4ccccc43)o2)cc1 | 7.91
66 | CC1CN(C(=O)CSc2nc(N)cc(N)n2)CC(C)O1 (stereo not drawn) | 6.44
67 | COc1ccc(C(=O)Nc2cc(=O)n(C)c(=O)n2C)cc1 | 5.06
68 | Cn1nccc1C(=O)c1ccc(Cl)cc1 | 6.6
69 | CC(=O)NS(=O)(=O)c1ccc(N/C(N)=N/c2nc(C)cc(C)n2)cc1 | 17.1

Row | SMILES | hERG current change (%, negative = inhibition) at 1uM [%]
70 | NC(=O)CN1C(=O)C2C3C=CC(C3)C2C1=O (stereo not drawn) | 12.5
71 | Nn1c(SCC(=O)Nc2ccccc2Br)nnc1-c1ccco1 | 3.96
72 | CCO[C@@H]1OC(C(=O)O)=C[C@H](c2csc3ccccc23)[C@H]1CCCO | 4.69
73 | CC(=O)Nc1cccc(NC(=O)CSc2ncc(C(=O)Nc3ccccc3)c(=O)n2C)c1 | 11.7
74 | CCS(=O)(=O)N1CCN(C(=O)c2ccccc2[N+](=O)[O-])CC1 | 13.7
75 | O=C(O)c1ccc(S(=O)(=O)N(Cc2ccccc2)C2CCCCC2)cc1 | 8.15
76 | CCOC(=O)Cn1nc(C)n(-c2ccc(C(C)C)cc2)c1=O | 7.27
77 | Cl.NCCS(=O)(=O)NC1CCCCC1 | 8.87
78 | COC(=O)CCC(=O)OC1(C)C(=O)C2=COC(c3ccc(OC)cc3)=CC2=C(Br)C1=O (stereo not drawn) | 16
79 | O=C(OCCN=C1NS(=O)(=O)c2ccccc21)c1cccs1 | 12.3
80 | O=C(Nc1cccc(C(F)(F)F)c1)C1=CC=CN2CCS(=O)(=O)N=C12 | -2.87
81 | COc1ccccc1/C=C1\SC(=S)N(CCC(=O)N2CCN(C)CC2)C1=O | 14.8
82 | CC1CCN(C(=O)c2ccc(Br)c(S(=O)(=O)N3CCOCC3)c2)CC1 | 6.02
83 | O=C1c2ccccc2C(=O)c2c1ccc1c(=O)n(C3CCCCC3)[nH]c21 | 13.3
84 | CCCCN(Cc1cc2ccccc2[nH]c1=O)S(C)(=O)=O | 5.11
85 | COc1ccc(N2C(=O)CC(S/C(N)=N/N=C/c3ccnc4ccccc34)C2=O)cc1 (stereo not drawn) | 15.4
86 | C/C(=N/NS(=O)(=O)c1ccc(C)cc1)c1ccc2c(c1)OCO2 | 17.4
87 | COc1ccccc1Nc1nnc(SCc2nnc(-c3cc(OC)c(OC)c(OC)c3)o2)s1 | 9.56
88 | O=C(NCc1ccccc1)c1onc(CSc2ccc(F)cc2)c1C(=O)NCc1ccccc1 | 5.63
89 | CCSc1nnc(NC(=O)[C@@H](NC(=O)c2cccc(C)c2)C(C)C)s1 | 12.7
90 | COCC(=O)N1CCC(Oc2ccc(C(=O)NC3Cc4ccccc4C3)cc2)CC1 | 10.2
